# Source: the supplement of paper PMC11417369
# The list shows a part of the results.
# Test system: PF3D7_0420300 AP2 domain 1 (GST-tagged)
# Test: gcPBM binding intensity (ln(normalized median fluorescence intensity)); higher = stronger DNA binding
# Method in brief: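 Using an Agilent 4 × 180k array, primer-extended double-stranded 36-bp intergenic genomic probes and negative controls were exposed for 1 h to GST-fused P. falciparum DNA-binding domains expressed in E. coli. Binding was carried out in 1× PBS with 1% milk, 0.2 mg/ml BSA, 0.5% salmon testes DNA and 0.03% Triton X-100, and protein was detected with Alexa488 anti-GST antibody and a 488 nm scan. Binding intensity is the highest Masliner-normalised natural-log median intensity across replicate spots of either probe orientation.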
row,Sequence,gcPBM binding intensity (ln)
1,TTTTTAAAAAAACATACACACAAAAAAAAAAAAAAA [CACACA_site3935],9.11
2,TATATATATTATAATACATGCGGTGATGAAAGTTAT [TGCATGCA_site924],9.5
3,TATAAATATAGACACACACACACCAAAGCGTAGCGC [CACACA_site6179],9.88
4,AAAAAACATTTTCGAGTGCATGTTTTGCTTTATTTC,9.22
5,AATAATTTGGTCTTATCAAAAATTAAAAATAAATAA [XGTACX_negctrl_site430],8.95
6,TTAAATGTTAAAAGGGTGCTATTATATAAATGAAAA [GTGCAC_site9882],9.16
7,TTCATATGTTTTAACACACACGCATATATTATATAT [CACACA_site2007],9.8
8,AAATAAAAATAAAATAAAATAAAATTAAATGGGAAT [GTGCAC_negctrl_site349],9.54
9,GTTTTATATTATATATGTACATATCCATGAGATATA [XGTACX_site3328],9.4
10,TTTAACTTTTATATAACACACATATTGTAATTATGT [CACACA_site6486],9.43
11,TGTAAACATAAGATATGTACTTATATCATATTATAA [XGTACX_site6883],9.1
12,ATGACAATTCAAAATTGTACATAAAAAAAAAAAAAA [XGTACX_site7560],8.83
13,AAAAAAAAAAAAAAAGCACACACCAATGAGCAGCTT [CACACA_site1845],9.33
14,CACACCCACAGACACACACACACATATATAATATAT [CACACA_site594],10.2
15,TATAATCATATACACGCATGTATAAAATTTAATACT [TGCATGCA_site700],9.22
16,TAATATATGTATTATGCATGTGAATAAGCACTTGAT [TGCATGCA_site848],9.14
17,ATATGTTACAAAGATTGTACTTATTAAGGAGCGACT [XGTACX_site5094],9.3
18,ACATTCAAGCGTAATTGTACATACATATATATATAT [XGTACX_site8876],9.42
19,ATGTATATAAATAGTAGTACATTATTTCACACTGTA [XGTACX_site2061],9.27

row,Sequence,gcPBM binding intensity (ln)
1,TATTGTATCCTTAATGCATGCACCAAATAAAAAAAG [TGCATGCA_site541],9.11
2,ACCATATGTACATTTTTTTTTTTTTTTTTTTTTTTT [CACACA_negctrl_site1188],9.45
3,ATATATATATAATGTAGTACTATTTAATAATAAGCC [XGTACX_site1263],9.61
4,TAAAAAAATTTTACAAGTACAAAAAAATGTAATAAA [XGTACX_site4829],9.22
5,ATATATATAGATCGAAGTACAGATAGAATGAAAATA [XGTACX_site2695],9.34
6,ACAAGAGAAAAAAATACACACAAGATAAAAATGTAT [CACACA_site607],9.91
7,TATGCTTTTACAATGTGTACTTATATTTTTCACAGG [XGTACX_site6201],9.24
8,ATATATCATCATGTATGTACACACATACATATATTA [XGTACX_site2814],9.54
9,TAATTTTCAATAATTTGTACATAATTTTTATAAATT [XGTACX_site8133],8.85
10,AACCATAAAAAGTGTACACATATAAAAAATATGGAA [CACACA_site4199],9.52
11,TATATAAATTAACCAGTGCATTATTTGGAAATTATT,9.31
12,TAAAAATTACTATATGAACACACATGATTAGATATA [CACACA_site9012],9.35
13,AGGTGATTAATATATACACACATACATATATATATA [CACACA_site8913],9.64
14,TAATAATAATTAAATTGTACATATAATATAATATAA [XGTACX_site8554],9.08
15,AATAAAGTAATAACTACACACATTTATAAAAAAGTA [CACACA_site3753],9.63
16,ATATTATCATATTCGAGTACACGAAGTATTATTGCA [XGTACX_site6765],9.19
17,AACATATTGGATTTAGTGCACATATATATCATAATA,9.24
18,AAAAATTACCCTTGTGTACACATATATTATCTGTAT [CACACA_site4513],9.59
19,TCTTATAAACATGTATATATTAAAAAAAAAAAAAAA [TGCATGCA_negctrl_site86],8.86

row,Sequence,gcPBM binding intensity (ln)
1,TATAAGCTTTCAATGTGTACATATTATTTTATTATT [XGTACX_site3988],9.44
2,AATATGGTTATATATATATATATATATATATATATT [GTGCAC_negctrl_site566],9.17
3,TTATTATATAAAATAAATAACAAAAAAAATAAAATA [GTGCAC_negctrl_site548],9.2
4,ATTGTTTTATATAGAACACACATAAAAATCTATATG [CACACA_site6681],9.26
5,CAACATTTATATTTTACACACATCATTTAAGCGCTT [CACACA_site992],9.58
6,TTTGAAATAAATAATGCACACTCTACATATATACGT [CACACA_site2244],9.39
7,CCTATCCATACATATACACACATATCTATTTATATA [CACACA_site1669],9.71
8,AAATAAAATACAAGTTGTACTATAAGCTTTTTATAT [XGTACX_site8021],9.28
9,TAATTTAATAATTAGACACACATGTCTAAAATAAAA [CACACA_site2527],8.95
10,AAAAGAAATTTGGGCACATGCGAATTTATAATTTAT [TGCATGCA_site960],9.29
11,TAAAGTATTACAACCACACACACACCGATATATTAT [CACACA_site9382],9.99
12,TATATATATATATATACATGCATATTTTTTATTTTT [TGCATGCA_site464],9.05
13,TTTTTTATATATATTTGTACATATTGCATGTTCCCT [XGTACX_site7143],9.35
14,TGTCTTATATATATTACACACTATATGAAAAAATAT [CACACA_site1487],9.29
15,TATATTTATCTGATAACACACATAAATTAGACATTT [CACACA_site6887],9.2
16,TGTTTTTGTGATCATATGAAAAAATTACCTACAAGG [CACACA_negctrl_site279],9.03
17,ATAGTATCTGGTAGCTGTACGAGTCGTATAGTGCAG [XGTACX_site2542],9.29
18,TTTCCGTATAATTTTGCACACGAATATAAATTTGAT [CACACA_site137],9.34
19,ATAGTTTTACACATTTGTACATAATTTACAACAAAA [XGTACX_site25],9.12
